Reference: PubChem BioAssay AID1461 (National Center for Advancing Translational Sciences (NCATS), 2008)
In all, about 220,000 compounds went through this assay and about 2,300 (1%) were called active. This list was built around the results that the source calls inconclusive (neither active nor inactive); the mix of calls is not that of the screen. Calls come from the whole dose curve; as a rule, active = well fitted inhibition curve with a large enough effect; inconclusive = small, poorly fitted or top-dose-only effect, or effect the other way; inactive = no such curve, though single readings can be large or run the other way. Potencies of inconclusive entries are left out as doubtful fits. The source holds several records for some structures; these can differ, active in one and inactive in another.
Note: nearly all actives have a fitted effect of over 50% in size.
Potency is the fitted concentration of half-maximal effect; tags give direction and shape of the fitted curve.

What follows are compounds tested against Neuropeptide S receptor (Homo sapiens) (UniProt Q6W5P4) (assay: qHTS Assay for Antagonists of the Neuropeptide S Receptor: cAMP Signal Transduction). Conditions: CHO-NPSR cells, cAMP TR-FRET, antagonist mode; series mostly up to 38.3 µM.
UniProt Q6W5P4, sequence (Q6W5P4 whole entry, looked up): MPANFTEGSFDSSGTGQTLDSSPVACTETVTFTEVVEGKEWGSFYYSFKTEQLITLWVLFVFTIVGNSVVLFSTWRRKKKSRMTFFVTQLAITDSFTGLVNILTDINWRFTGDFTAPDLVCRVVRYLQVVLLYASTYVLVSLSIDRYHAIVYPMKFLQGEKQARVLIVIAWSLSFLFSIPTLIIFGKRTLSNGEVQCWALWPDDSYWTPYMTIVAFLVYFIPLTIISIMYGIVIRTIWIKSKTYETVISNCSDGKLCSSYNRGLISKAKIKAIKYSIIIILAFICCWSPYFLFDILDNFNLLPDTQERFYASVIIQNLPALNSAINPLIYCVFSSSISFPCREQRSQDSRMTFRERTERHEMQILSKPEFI
In the case of `CC(=O)NC1(NC(C)=O)CCN(C)CC1`, the Potency is reported as “inactive”.
In the case of `CCOC(=O)C1=C(C)n2c(s/c(=C/c3cccc([N+](=O)[O-])c3)c2=O)=NC1c1ccc(O)c(OC)c1` (configuration not stated), the Potency is reported as active: 7.94 µM.
In the case of `CC1N(C)c2cc(NC(=O)c3ccco3)ccc2C1(C)C` (configuration not stated), the Potency is reported as “inactive”.
With `CCOc1ccc(NC(=S)N(Cc2ccc(N(C)C)cc2)Cc2ccco2)cc1` the Potency was inconclusive [inhibitor, partial curve].
In the case of `O=C1CC(c2ccccc2)Sc2nc(-c3ccccc3)c(-c3ccccc3)n21` (configuration not stated), the Potency is reported as inconclusive [inhibitor, partial curve].
In the case of `O=C1/C(=C\c2ccc([N+](=O)[O-])cc2)CCc2ccccc21`, the Potency is reported as “inactive”.
With `CCN(CC)c1ccc(N=Nc2nn(C)c(C)c2[N+](=O)[O-])cc1` the Potency was “inactive”.
For `OC(c1cc(-c2ccc(Cl)cc2)nc2ccccc12)C1CCCCN1` (configuration not stated), the Potency was inconclusive [activator, partial curve].
For `COc1ccc(-c2ccnc3nc(Sc4ncc(C(F)(F)F)cc4Cl)nn23)cc1`, the Potency was inconclusive [inhibitor, single point].
With `COc1cc(C(=O)NC(c2ccccc2)c2ccccc2)cc(Cl)c1OC` the Potency was “inactive”.
For `Cc1cc(CN2CCN(CCC#N)CC2)c(O)c(C2(C)CCCCC2)c1`, the Potency was active: 10 µM.
With `Clc1cccc(COn2c(-c3ccc(Cl)cc3Cl)nc3ncccc32)c1` the Potency was inconclusive [inhibitor, single point].
`Cn1nc(C(F)(F)F)c2cc(C(=O)Nc3ccc(C(F)(F)F)cc3)sc21` was tested, and the Potency was inconclusive [inhibitor, single point].
With `Cc1noc(C)c1COC(=O)c1ccccc1NC(=O)Cc1ccccc1` the Potency was inconclusive [inhibitor, partial curve].
With `CSc1nnc(NC(=O)CCc2ccccc2)s1` the Potency was “inactive”.
In the case of `CC1(C)CC(=O)C(/C=N/n2c(C(F)(F)F)nc3ccccc3c2=O)=C(O)C1`, the Potency is reported as “inactive”.
In the case of `O=C(C1=C(c2ccccc2)C(=O)c2ccccc2C1=O)c1ccccc1`, the Potency is reported as inconclusive [inhibitor, single point].
With `CCCCCn1c(CCC(=O)Oc2ccccc2OC)nc2c1c(=O)[nH]c(=O)n2CCCC` the Potency was inconclusive [inhibitor, single point].
In the case of `CN(C)S(=O)(=O)c1cccc(C(=O)N(Cc2ccc(F)cc2)Cc2ccco2)c1`, the Potency is reported as inconclusive [activator, partial curve].
For `O=C(Nc1nnc(-c2ccccc2)s1)c1cc(S(=O)(=O)N2CCOCC2)c(Cl)cc1Cl`, the Potency was inconclusive [inhibitor, single point].
In the case of `CCOC(=O)c1cc2sccc2n1CC(=O)c1ccc2c(c1)OCCO2`, the Potency is reported as inconclusive [inhibitor, partial curve].
With `O=c1c2c(ncn2C2CCCC2)n(Cc2ccccc2)c(=O)n1CCOc1ccccc1` the Potency was inconclusive [inhibitor, single point].
For `O=C(Nc1cccc(Cl)c1)N1CCN(C2c3ccccc3-c3ccccc32)CC1`, the Potency was inconclusive [activator, single point].
In the case of `CCOc1cc(/C=N\NC(=O)c2ccc(NC(=O)CC)cc2)ccc1OC(=O)c1ccccc1`, the Potency is reported as inconclusive [inhibitor, single point].
In the case of `CCN1CCN(C(=S)Nc2ccc(Cl)cc2)CC1`, the Potency is reported as inconclusive [inhibitor, single point].
In the case of `Cc1cccc(Nc2nnc(SCc3cn4ccsc4n3)s2)c1`, the Potency is reported as inconclusive [activator, single point].
In the case of `Cc1ccc(-n2c(-c3cc(C)n(C)n3)n[nH]c2=S)cc1`, the Potency is reported as “inactive”.
With `O=C(C(c1ccccc1)c1ccccc1)N1CCCc2ccccc21` the Potency was inconclusive [inhibitor, partial curve].
`Cc1c(CN(C)C)c2c(n1C)C(=O)c1ccc(Br)cc1-2` was tested, and the Potency was inconclusive [inhibitor, single point].
With `CC(=O)c1c(C(C)=O)c(C)n(NC(=O)c2cccnc2)c1C` the Potency was inconclusive [inhibitor, partial curve].
`c1ccc(CN2CCC(Nc3nc(-c4cccs4)nc4ccccc34)CC2)cc1` was tested, and the Potency was inconclusive [inhibitor, single point].
In the case of `Nc1nc(Nc2ccccc2)sc1C(=O)c1ccccc1`, the Potency is reported as “inactive”.
`Cc1nnc(C)c2c(C)n(C(C)c3ccccc3)c(C)c12` (configuration not stated) was tested, and the Potency was inconclusive [inhibitor, single point].
For `C/C(=N\Nc1nc(N2CCCCCC2)nc(N2CCCCCC2)n1)c1ccccc1`, the Potency was inconclusive [inhibitor, single point].
For `Cc1nnc(NC(=O)c2ccc(Br)cc2)s1`, the Potency was “inactive”.
In the case of `CS(=O)(=O)Nc1cccc2cccnc12`, the Potency is reported as “inactive”.
With `O=C(N[C@@H](Cc1c[nH]c2ccccc12)C(=O)NC1CC1)c1ccccc1Cl` the Potency was “inactive”.
With `Cc1ccc(C)c(-n2nnnc2SCC(=O)Nc2cccc(-c3nnc4n3CCCCC4)c2)c1` the Potency was inconclusive [inhibitor, single point].
For `CCOC(=O)c1sc2nccc(N(C)C)c2c1N=CNOCc1ccccc1`, the Potency was inconclusive [inhibitor, single point].
`CNC(=O)CSc1nnc(-c2ccco2)n1-c1ccccc1OC` was tested, and the Potency was “inactive”.
`CON/C=N/C(=S)Nc1ncc(C(F)(F)F)cc1Cl` was tested, and the Potency was “inactive”.
For `Cc1nnc(SC(=O)N2c3ccccc3Sc3ccccc32)s1`, the Potency was inconclusive [inhibitor, partial curve, poor fit].
For `COc1ccc(OC)c(C2=Nn3c(nnc3-c3cccc(OC(C)C)c3)SC2)c1`, the Potency was inconclusive [inhibitor, partial curve].
`O=C1CS/C(=C\S(=O)(=O)c2ccc(Cl)cc2)N1` was tested, and the Potency was inconclusive [inhibitor, partial curve, poor fit].
With `O=C(Nc1ccc(Oc2cccc3ccccc23)cc1)c1ccco1` the Potency was inconclusive [inhibitor, single point].
`C=CCNC(=O)/C(=C/c1cn(-c2ccccc2)nc1-c1cccc([N+](=O)[O-])c1)NC(=O)c1ccccc1` was tested, and the Potency was “inactive”.
For `CC(=O)c1cc(CC=C(C)C)c(O)cc1O`, the Potency was inconclusive [inhibitor, single point].
For `O=C(CCc1ccc(S(=O)(=O)NC2CCCCC2)cc1)NCc1ccccn1`, the Potency was “inactive”.
`NS(=O)(=O)c1ccc(N2N=C(c3ccc(Br)cc3)CC2c2ccc(F)cc2)cc1` (configuration not stated) was tested, and the Potency was inconclusive [inhibitor, single point].
In the case of `N#Cc1c(C(F)(F)F)cc(-c2cccs2)nc1SCc1ccc(Cl)nc1`, the Potency is reported as “inactive”.
`Cc1ccc2c(c1)nnn2C1CCN(CC(=O)NCCc2ccccc2)CC1` was tested, and the Potency was inconclusive [inhibitor, single point].
In the case of `Cc1cc(C(=O)CSc2nc3ccccc3c(=O)n2C)c(C)n1Cc1ccc2c(c1)OCO2`, the Potency is reported as inconclusive [inhibitor, single point].
For `O=C(c1ccc(F)cc1)C1CCN(CCn2c(=O)[nH]c3ccccc3c2=O)CC1`, the Potency was active: 1.58 µM.
`CCOC(=O)c1c(NC(=O)C2CCN(S(=O)(=O)c3cccs3)CC2)sc(C)c1C` was tested, and the Potency was inconclusive [inhibitor, partial curve].
For `FC(F)(F)C(Oc1nc(NC2CCCCC2)nc(N2CCOCC2)n1)C(F)(F)F`, the Potency was active: 10 µM.
With `O=C(CN1C(=O)c2ccccc2C1=O)Nc1ccc(S(=O)(=O)NCC2CCCO2)cc1` (configuration not stated) the Potency was “inactive”.
With `CCOC(=O)c1cc2c(ccn2C)n1CC(=O)N(Cc1ccccc1)c1ccc(F)cc1` the Potency was inconclusive [inhibitor, single point].
With `CCc1cccc(NC(=S)N(CCOC)C(C)c2ccco2)c1` (configuration not stated) the Potency was “inactive”.
With `N#C/C(=C/c1ccc(N2CCCCCC2)o1)c1cccc(F)c1` the Potency was active: 6.31 µM.
`COc1ccc(C[C@H]2CN3C(=NC[C@@H]3Cc3ccccc3)N2CCNC(=O)c2ccc(C)c(Br)c2)cc1` was tested, and the Potency was inconclusive [activator, single point].
In the case of `CC(=O)N(c1ccccc1)c1c(F)c(F)c(F)c(F)c1F`, the Potency is reported as “inactive”.
In the case of `O=C(NCCN1CCOCC1)c1ccc2c(c1)N(Cc1cccc(F)c1)C(=O)c1ccccc1S2`, the Potency is reported as “inactive”.
In the case of `CN(C(=O)c1ccc2c(=O)n3c(nc2c1)CCCCC3)c1ccccc1Cl`, the Potency is reported as “inactive”.
`COc1ccc(Cl)cc1N(C)C(=O)CCc1nc(-c2ccc(C)cc2)no1` was tested, and the Potency was inconclusive [inhibitor, partial curve].
`CC1CCC/C(=N/Nc2nc3ccccc3s2)C1` (configuration not stated) was tested, and the Potency was inconclusive [inhibitor, single point].
With `Cc1cccc(C2(c3cccc(C)c3)OC(=O)c3ccccc32)c1` the Potency was inconclusive [inhibitor, partial curve].
`COc1ccc(S(=O)(=O)Nc2cc3c4c(oc3c3ccccc23)CCCC4=O)cc1` was tested, and the Potency was “inactive”.
In the case of `Cc1cc(O)c(C(C)C)cc1NC(=O)Nc1cccc2ccccc12`, the Potency is reported as inconclusive [activator, full curve, poor fit].
In the case of `Cn1c(=O)c2c(nc(NCCc3ccccc3)n2Cc2ccc(F)cc2)n(C)c1=O`, the Potency is reported as inconclusive [inhibitor, partial curve, poor fit].
With `COc1cc(C(=O)OCC(=O)Nc2ccc(F)cc2F)cc(OC)c1OC` the Potency was inconclusive [inhibitor, partial curve].
In the case of `CCOC(=O)Cn1cc(/C=C/[N+](=O)[O-])c2ccccc21`, the Potency is reported as “inactive”.
In the case of `Brc1ccc2c(c1)C(c1ccc(N3CCOCC3)cc1)=NNC(c1cccs1)=N2`, the Potency is reported as inconclusive [inhibitor, partial curve, poor fit].
